No constants are given. Whether binding was seen depends on the method and setting. In cells and extracts the contact can be indirect. Some entries that bind do so weakly or less than the wild type. Where a sequence is shown, tags or fusion partners need not be part of it.
What was measured:
[1] = target: T1, myc-tagged phosphatidylinositol phosphate kinase type IIβ (rat) (UniProt O88377); experiment: co-IP; as the COS-7 co-IP, but lysis buffer with 1 mM MgCl2 and 1 mM EGTA instead of 2 mM EDTA (S1 Fig A)
T1 sequence: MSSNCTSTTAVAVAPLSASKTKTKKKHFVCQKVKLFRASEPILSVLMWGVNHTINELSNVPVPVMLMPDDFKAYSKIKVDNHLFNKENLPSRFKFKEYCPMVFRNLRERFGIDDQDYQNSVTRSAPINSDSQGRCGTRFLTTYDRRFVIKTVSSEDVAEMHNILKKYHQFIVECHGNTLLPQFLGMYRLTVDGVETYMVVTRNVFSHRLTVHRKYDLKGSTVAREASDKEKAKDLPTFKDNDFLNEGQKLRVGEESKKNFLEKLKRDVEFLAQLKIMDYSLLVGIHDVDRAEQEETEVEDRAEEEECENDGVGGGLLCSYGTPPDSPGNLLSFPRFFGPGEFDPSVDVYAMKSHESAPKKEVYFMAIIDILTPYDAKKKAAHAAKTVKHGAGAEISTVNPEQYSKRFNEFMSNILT

Chains of the proteins cited; added tags and fusions are not shown.
UniProt Q80SW1: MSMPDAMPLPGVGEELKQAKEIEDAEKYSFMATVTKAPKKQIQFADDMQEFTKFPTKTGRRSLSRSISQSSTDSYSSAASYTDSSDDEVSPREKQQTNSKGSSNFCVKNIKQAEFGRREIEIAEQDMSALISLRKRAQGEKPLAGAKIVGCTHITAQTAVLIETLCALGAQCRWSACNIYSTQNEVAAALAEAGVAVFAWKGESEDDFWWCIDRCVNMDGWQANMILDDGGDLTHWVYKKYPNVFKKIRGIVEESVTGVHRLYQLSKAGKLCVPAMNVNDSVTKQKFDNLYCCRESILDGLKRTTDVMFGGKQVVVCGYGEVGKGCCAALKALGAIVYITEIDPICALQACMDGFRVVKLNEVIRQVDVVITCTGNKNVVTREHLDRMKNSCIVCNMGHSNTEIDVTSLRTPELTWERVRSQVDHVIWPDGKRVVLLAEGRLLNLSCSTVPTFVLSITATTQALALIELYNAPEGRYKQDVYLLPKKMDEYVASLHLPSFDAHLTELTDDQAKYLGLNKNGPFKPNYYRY

[2] = target: T2, myc-tagged phosphatidylinositol phosphate kinase type IIγ (rat) (UniProt O88370); experiment: as above
T2 sequence: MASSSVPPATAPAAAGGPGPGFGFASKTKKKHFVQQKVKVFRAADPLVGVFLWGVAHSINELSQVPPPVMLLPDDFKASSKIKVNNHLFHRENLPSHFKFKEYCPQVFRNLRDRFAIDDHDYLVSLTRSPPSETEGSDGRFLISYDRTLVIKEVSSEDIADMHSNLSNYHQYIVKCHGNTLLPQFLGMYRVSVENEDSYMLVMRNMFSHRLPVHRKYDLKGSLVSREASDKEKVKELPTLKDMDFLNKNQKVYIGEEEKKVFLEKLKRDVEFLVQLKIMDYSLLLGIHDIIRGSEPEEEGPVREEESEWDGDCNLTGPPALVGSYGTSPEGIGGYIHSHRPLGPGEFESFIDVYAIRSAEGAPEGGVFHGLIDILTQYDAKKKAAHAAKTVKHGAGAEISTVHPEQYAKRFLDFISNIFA

“Hemagglutinin (HA)-tagged IRBIT (IP3R-binding protein released with inositol 1,4,5-trisphosphate) (from UniProt Q80SW1 1-530)” was tested, and the binding [1] was “binds” and the binding [2] was “binds”.
